{"source": "PubChem BioAssay AID1865", "about": "(National Center for Advancing Translational Sciences (NCATS), 2009)", "note": "Screen size: about 280,000 compounds; about 540 (0.19%) were called active. Inconclusive means that the source gave no clear call. Such entries were picked first, then a sample of the others. Calls come from the whole dose curve; as a rule, active = well fitted activation curve with a large enough effect; inconclusive = small, poorly fitted or top-dose-only effect; inactive = flat fitted curve, though single readings scatter. Where the call is inconclusive, the potency comes from a doubtful curve fit. Potency is the fitted concentration of half-maximal effect; tags give direction and shape of the fitted curve.", "data": [{"assay": "Quantitative High-Throughput Screen for Regulators of Epigenetic Control; note: nearly all actives have a fitted effect of over 60% in size; for GFP activation: % of control where 0% means no effect", "conditions": "murine LDR cells, GFP reporter derepression, 30 h; GFP activation: at 53.9 µM (top of the series)", "how_it_was_run": "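GFP-positive cell count by laser-scanning cytometry (objects 20–120 um) after 30 h, 37 C compound exposure of murine LDR cells; reporter is CMV-GFP integrated at a silenced locus, inducible by HDAC or DNMT inhibitors.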", "values": [{"smiles": "CCc1ccc2c(c1)c(=O)c(S(=O)(=O)c1ccc(F)cc1)cn2CC(=O)Nc1ccc(C)cc1C", "Potency": "inconclusive: 22.4 µM [activator, single point]"}, {"smiles": "C=CCn1c(SCN2C(=O)c3ccccc3C2=O)nc2ccc(Cl)cc2c1=O", "Potency": "inactive"}, {"smiles": "CCCCOc1ccc(C(=O)N2CCN(CCc3ccncc3)CC2)cc1", "Potency": "inactive"}, {"smiles": "COc1ccc(OC)c(/C=N/c2oc(-c3ccco3)c(-c3ccco3)c2C#N)c1", "Potency": "inactive"}, {"smiles": "O=C(/C(=N/N=C/c1ccc(O)c(O)c1)c1ccccc1)c1ccccc1", "Potency": "inconclusive: 35.5 µM [activator, single point]"}, {"smiles": "COC(=O)c1c(NC(=O)COC(=O)c2ccc(NC(=O)CC#N)cc2)sc2c1CCCCC2", "Potency": "inconclusive: 31.6 µM [activator, single point]"}, {"smiles": "COc1cc(OC)cc(C(=O)/C=C2\\Sc3ccccc3N2C)c1", "Potency": "inconclusive: 31.6 µM [activator, single point]"}, {"smiles": "N=C1/C(=C\\c2ccc(-c3cc(Cl)cc(Cl)c3)o2)C(=O)N=C2SC=C(c3ccccc3)N12", "Potency": "inconclusive: 15.8 µM [activator, single point]"}, {"smiles": "CCNc1nc(NC(C)C)nc(N(C#N)CCOc2ccc(Cl)cc2Cl)n1", "Potency": "inactive"}, {"smiles": "COc1ccccc1NC(=O)c1cccc(S(=O)(=O)N2CCCCCC2)c1", "Potency": "inactive"}, {"smiles": "COc1ccc(-n2c(N)c(C(=O)NCc3ccco3)c3nc4ccccc4nc32)cc1OC", "Potency": "inconclusive: 31.6 µM [activator, single point]"}, {"smiles": "CCN(CC)CCNC(=O)c1cn(CC)c2ccc(S(=O)(=O)N3CCOCC3)cc2c1=O", "Potency": "inactive"}, {"smiles": "COc1ccc(OC)c(Nc2nc3nonc3nc2N2CCCC(C)C2)c1", "note": "(stereo unspecified)", "Potency": "inconclusive: 6.31 µM [activator, full curve]"}, {"smiles": "Oc1c(CN2CCCCC2)cc(Br)c2cccnc12", "Potency": "inconclusive: 5.62 µM [activator, single point]"}, {"smiles": "O=C(/C=C/c1ccccc1)c1ccc2c(c1)OCO2", "Potency": "inconclusive: 35.5 µM [activator, single point]"}, {"smiles": "COc1ccc(C(=O)OCCCN(C)C)cc1OC", "Potency": "inactive"}, {"smiles": "C=CCOc1c(Cl)cc(CNc2ccc(C)c(Cl)c2)cc1OC", "Potency": "inactive"}, {"smiles": "O=C(COC(=O)c1cccc(Br)c1)Nc1cccc2c1C(=O)c1ccccc1C2=O", "Potency": "inconclusive: 17.8 µM [activator, single point]"}, {"smiles": "Cc1cccc(C)c1NS(=O)(=O)c1ccc(NC(=O)c2ccc(Cl)c([N+](=O)[O-])c2)cc1", "Potency": "inconclusive: 17.8 µM [activator, single point]"}, {"smiles": "Cc1cc(N2CCN(c3ccccc3)CC2)n2cc(-c3ccccc3)nc2n1", "Potency": "inactive"}, {"smiles": "Cc1cc(C)c2nc(SC(C)C(=O)NCC(=O)Nc3ccc(F)c(F)c3F)cc(C)c2c1", "note": "(stereo unspecified)", "Potency": "inactive"}, {"smiles": "CCC(=O)NC(c1ccco1)c1cc(Cl)c2cccnc2c1O", "note": "(stereo unspecified)", "Potency": "inconclusive: 31.6 µM [activator, single point]"}, {"smiles": "CCOc1ccc(N2C(=O)C(Cl)=C(Nc3ccccc3O)C2=O)cc1", "Potency": "inconclusive: 22.4 µM [activator, single point]"}, {"smiles": "CCc1cc(C(=O)OC)c(NC(=O)CC2Nc3cc(C)c(C)cc3NC2=O)s1", "note": "(stereo unspecified)", "Potency": "inconclusive: 31.6 µM [activator, single point]"}, {"smiles": "COC(=O)c1cc2ccsc2n1CC(=O)Nc1cc(C)cc(C)c1", "Potency": "inconclusive: 28.2 µM [activator, single point]"}, {"smiles": "Cc1ccc(NC(=O)CSc2nnc(-c3ccco3)c(-c3ccco3)n2)cc1", "Potency": "inactive"}, {"smiles": "O=C(O)c1ccc(C[n+]2c(-c3ccccc3)csc2Nc2ccccc2)cc1", "Potency": "inactive"}, {"smiles": "COc1cccc(N2CCN(C(=O)CCc3c(C)nc4c(c3C)c(=O)n(C)c(=O)n4C)CC2)c1", "Potency": "inactive"}, {"smiles": "CCOC(=O)Cn1c(=NC(=O)c2nc3ccccc3s2)sc2cc(S(N)(=O)=O)ccc21", "Potency": "inconclusive: 31.6 µM [activator, single point]"}, {"smiles": "Cc1c(O)ccc(C(=O)COc2ccc(F)cc2)c1O", "Potency": "inactive"}, {"smiles": "Cc1cccc(NC(=O)CSc2nc(NS(=O)(=O)c3ccccc3)cc(=O)[nH]2)c1", "Potency": "inconclusive: 31.6 µM [activator, single point]"}, {"smiles": "COc1ccc(-c2nnc(SCC(=O)Nc3ccc(C(C)C)cc3)nc2-c2ccc(OC)c(OC)c2)cc1OC", "Potency": "inconclusive: 31.6 µM [activator, single point]"}, {"smiles": "Cc1ccc(NC(=S)Nc2ccc3[nH]c(=O)[nH]c3c2)cc1", "Potency": "inactive"}, {"smiles": "Cc1ccc(-n2c3c(c(=O)[nH]c2=O)C(NC(=O)c2ccccc2F)(C(F)(F)F)C(=O)N3)cc1C", "note": "(stereo unspecified)", "Potency": "inconclusive: 14.1 µM [activator, single point]"}, {"smiles": "COC(=O)C1=C(C)NC(=O)CC1c1ccc(C(=O)OC)cc1", "note": "(stereo unspecified)", "Potency": "inactive"}, {"smiles": "CCOc1ccc(-c2nc3c(C#N)c[nH]n3c2NC2CCCC2)cc1", "Potency": "inactive"}, {"smiles": "c1ccc(OCc2nnc3n2N=C(c2ccccc2)CS3)cc1", "Potency": "inactive"}, {"smiles": "COc1ccc(OC)c(NC(=O)Cn2cc(C(=O)c3ccco3)c3ccccc32)c1", "Potency": "inactive"}, {"smiles": "CS(=O)(=O)c1ccc(Cl)c(NC(=O)COC(=O)c2c(Cl)cccc2Cl)c1", "GFP activation": "inactive: -0.805% [at 10.1 µM]"}, {"smiles": "COc1ccccc1NC(=O)Cn1c(=O)n(Cc2ccco2)c(=O)c2oc3ccccc3c21", "Potency": "inconclusive: 22.4 µM [activator, single point]"}, {"smiles": "Cc1ccccc1-c1nnc(C2CCN(S(=O)(=O)c3ccc(Cl)cc3)CC2)o1", "Potency": "inconclusive: 35.5 µM [activator, single point]"}, {"smiles": "CCOC(=O)C1=C(c2ccccc2)N=c2s/c(=C\\c3cccc(O)c3)c(=O)n2C1c1cccs1", "note": "(stereo unspecified)", "Potency": "inconclusive: 31.6 µM [activator, single point]"}, {"smiles": "N#Cc1ccccc1-c1cncnc1NCc1cccnc1", "Potency": "inactive"}, {"smiles": "O=C1c2cccc3c(N4CCCCC4)ccc(c23)C(=O)N1c1ccccc1O", "Potency": "inconclusive: 15.8 µM [activator, single point]"}, {"smiles": "Oc1[nH]c(N=C2N=c3ccccc3=N2)c2ccccc12", "Potency": "active: 12.6 µM"}, {"smiles": "Cc1nn(CC(=O)NCCc2ccccc2Cl)c(=O)c2nn(-c3ccccc3)c(C)c12", "Potency": "inactive"}, {"smiles": "c1coc(CNc2ncnc3c2oc2ccccc23)c1", "Potency": "inactive"}, {"smiles": "CN1c2ccccc2C(C)(C)C12C=Nc1c(ccc3ccccc13)O2", "note": "(stereo unspecified)", "Potency": "inconclusive: 20 µM [activator, single point]"}, {"smiles": "O=C(CCS(=O)(=O)c1nc(-c2ccc3c(c2)OCO3)cc(C(F)(F)F)n1)Nc1ccc(F)cc1F", "Potency": "inconclusive: 31.6 µM [activator, single point]"}, {"smiles": "CCS(=O)(=O)c1ncc(Cl)c(C(=O)Nc2c(C(=O)c3ccc(C)cc3)oc3ccccc23)n1", "Potency": "inconclusive: 5.01 µM [activator, single point]"}, {"smiles": "CNC(=O)/C(C#N)=C/c1ccc(-c2ccc(Cl)cc2)o1", "Potency": "inactive"}, {"smiles": "Cc1ccc(C(=O)Cn2c(C(=O)/C=C/c3ccccc3)nc3ccccc32)cc1", "Potency": "inconclusive: 20 µM [activator, single point]"}, {"smiles": "N#Cc1cc2c(nc1SCC(=O)Nc1sc3c(c1C#N)CCC3)CCCCCC2", "Potency": "inconclusive: 35.5 µM [activator, single point]"}, {"smiles": "N#Cc1cc2c(nc1SCc1nc3ccccc3[nH]1)CCC2", "Potency": "inconclusive: 35.5 µM [activator, single point]"}, {"smiles": "O=C(Cn1nnc(-c2cccs2)n1)NNC(=O)c1ccccc1Cl", "Potency": "inconclusive: 3.98 µM [activator, single point]"}, {"smiles": "O=C1N/C(=C/c2ccc(N3CCCC3)cc2)C(=O)N1c1ccccc1", "Potency": "active: 15.8 µM"}, {"smiles": "CCc1ccc(CNC(=O)c2ccc(-n3c(C)cc4c3CCC(C)C4)cc2)cc1", "note": "(stereo unspecified)", "Potency": "inconclusive: 25.1 µM [activator, single point]"}, {"smiles": "CC1=CC(C)(C)Nc2ccc(OC(=O)CN3C(=O)CCC3=O)cc21", "Potency": "inconclusive: 25.1 µM [activator, single point]"}, {"smiles": "CCCCCCCC1=CC2=CC(=O)C(C)(O)C(=O)C2=CN1CCCC", "note": "(stereo unspecified)", "GFP activation": "inactive: 1.14% [at 10.1 µM]"}, {"smiles": "Cc1ccc(NC(=O)Cn2cc(C(=O)c3ccco3)c3ccccc32)cc1", "Potency": "inconclusive: 35.5 µM [activator, single point]"}, {"smiles": "Cc1ncc(CO)c2c1Oc1nc(-c3ccc(F)cc3)nc(SCc3ccc(F)cc3Cl)c1C2", "Potency": "inconclusive: 28.2 µM [activator, single point]"}, {"smiles": "CCC(=O)Nc1ccc(/C=C(\\C(C)=O)C(=O)c2ccccc2)cc1", "Potency": "inconclusive: 25.1 µM [activator, single point]"}, {"smiles": "Cc1ccc2c(=O)c(C(=O)c3ccccc3)cn(CC(=O)Nc3ccccc3C)c2n1", "Potency": "inconclusive: 20 µM [activator, single point]"}, {"smiles": "O=C(NCc1ccco1)c1nn2c(C(F)(F)F)cc(-c3cccs3)nc2c1Br", "Potency": "inconclusive: 25.1 µM [activator, single point]"}, {"smiles": "Brc1ccc2c(c1)NC(c1cccnc1)=NC(c1ccccc1)=N2", "Potency": "inconclusive: 11.2 µM [activator, single point]"}, {"smiles": "CCCOc1cccc(C(=O)Nc2cccnc2)c1", "Potency": "inactive"}, {"smiles": "COc1cccc(C2C3=C(N=c4s/c(=C\\c5ccc(O)cc5)c(=O)n42)c2ccccc2CC3)c1OC", "note": "(stereo unspecified)", "Potency": "inconclusive: 31.6 µM [activator, single point]"}, {"smiles": "Cn1cc(/C=C2/SC(=O)N(c3ccccc3)C2=O)c2ccccc21", "Potency": "inconclusive: 15.8 µM [activator, single point]"}, {"smiles": "Cc1oc(-c2ccccc2F)nc1CS(=O)(=O)CC(=O)N1CCOCC1", "Potency": "inactive"}, {"smiles": "O=C1c2cccc3c(N4CCCCC4)ccc(c23)C(=O)N1c1cccc(O)c1", "Potency": "active: 11.2 µM"}, {"smiles": "S=c1nc[nH]c2c1cnn2-c1ccccc1", "Potency": "inactive"}]}]}
